Among all 48,000 compounds or so, about 1,200 (2.5%) were called active. Another 2% or so got no clear call; they are omitted.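 Rule for the calls: active = activation of at least 60% and not above a set upper limit (about 1 call in 100 departs from these limits); inconclusive = activation of 40% to 60%, or above that upper limit; inactive = activation under 40%.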 The list shows a part of the results.
target: Probable G-protein coupled receptor 32 (Homo sapiens) (UniProt O75388); assay: qHTS for Agonists of Human Resolvin D1 Receptor DRV1; conditions: CHO-K1 GPR32 beta-arrestin PathHunter luminescence, 90 min; at 76.9 µM; hits give high values; zero percent set by DMSO-only wells; note: 0% is about no effect
UniProt O75388, sequence (O75388 whole entry, looked up): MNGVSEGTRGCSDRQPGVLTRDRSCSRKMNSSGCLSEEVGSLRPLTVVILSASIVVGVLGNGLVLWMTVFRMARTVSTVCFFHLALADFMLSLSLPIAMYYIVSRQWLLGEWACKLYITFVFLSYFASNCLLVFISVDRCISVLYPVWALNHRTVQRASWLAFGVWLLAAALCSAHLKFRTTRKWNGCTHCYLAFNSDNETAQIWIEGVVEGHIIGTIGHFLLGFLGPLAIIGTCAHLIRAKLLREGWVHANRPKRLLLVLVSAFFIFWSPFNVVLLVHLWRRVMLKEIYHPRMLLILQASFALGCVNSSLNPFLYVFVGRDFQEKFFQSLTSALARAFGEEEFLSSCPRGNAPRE
Procedure, shortened: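 Using DMSO wells as EC0, agonist-induced signal was taken as chemiluminescence from beta-Gal reconstituted upon beta-arrestin recruitment to GPR32 in CHO-K1 cells after 90 min compound treatment.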

activation, active:
Cc1cc(=O)n(CC(=O)N2CCN(c3ccc(F)cc3)CC2)c2c1c(C)nn2C 71%, CCCCCn1c(=N)n(CC(O)COc2cccc(C)c2)c2ccccc21 (centres undefined) 89.8%, O=C(c1ccc(F)cc1)C1CCN(CCn2c(=S)[nH]c3ccccc3c2=O)CC1 68%, Cc1cccc(OCC(=O)Nc2ccc3nc(Nc4cccc(Cl)c4)cc(C)c3c2)c1 103%

activation, inactive:
Cc1ccc(NC(=O)CSc2nc(=O)cc(N)n2CCc2ccccc2)cc1 -21.7%, CCOc1nc2cccc(C(=O)O)c2n1Cc1ccc(-c2ccccc2-c2nn[nH]n2)cc1 3.04%, CCc1ccccc1NC(=O)C1CCCN(c2cnccn2)C1 (centres undefined) 8.58%, C=C(C)C(=O)OCC(O)CO (centres undefined) -0.968%, O=C(Nc1cccc(NC(=O)c2ccccc2Cl)c1)c1cccc(Br)c1 -17.6%, CCOc1ccc(N2CC(C(=O)NCc3nnnn3-c3ccc(C)c(C)c3)CC2=O)cc1 (centres undefined) -12.8%, CCOc1ccc(NS(=O)(=O)c2ccc3[nH]cc(C(=O)NCC4CCCO4)c(=O)c3c2)cc1 (centres undefined) -1.07%, COC(=O)CN1C(=O)CSc2ccc(S(=O)(=O)Nc3cccc(Cl)c3C)cc21 4.33%, Nc1c(-c2nc(-c3ccc(F)cc3)cs2)c2ccccn2c1C(=O)c1ccc2c(c1)OCO2 0.311%, CC(=O)c1ccc(N2CCN(C(=O)CCS(=O)(=O)c3ccc4c(c3)oc(=O)n4C)CC2)cc1 -10.2%, COc1ccc(NCc2cc3ccc(OC)cc3n(CC(=O)Nc3cc(Cl)ccc3C)c2=O)cc1 -35.7%, CC(Oc1ccccc1F)C(=O)Nc1ccc(-c2nc3ccccc3s2)cc1 (centres undefined) 30.6%, CCSc1ncc(Cl)c(C(=O)Nc2sc3c(c2C(=O)NC)CCCC3)n1 -4.25%, CC1CCc2c(sc(NC(=O)c3cc4nc(-c5ccc(Cl)cc5)cc(C(F)(F)F)n4n3)c2C#N)C1 (centres undefined) -1.49%, Nc1ccc(C(=O)O)c(O)c1 -8.73%, CCc1cccc(NC(=O)CN(C)S(=O)(=O)c2cccc3cccnc23)c1 3.82%, CCC1CCCCN1C(=O)c1sc(-n2nc(C)c(Cc3ccccc3)c2C)nc1C (centres undefined) -3.21%, COc1ccc(S(=O)(=O)c2cnc(SCC(=O)Nc3cc(F)ccc3C)[nH]c2=O)cc1Cl -6.79%, Cc1ccc(Cl)cc1NC(=O)CN1C(=O)C(C)(C)c2cc(S(=O)(=O)N3CCCCC3)ccc21 3.65%, Cc1cccc(-c2nc3c4ccccc4nc(NCc4ccc(F)cc4)n3n2)c1 -10.9%, CCOC(=O)c1c(S(=O)(=O)NCC(=O)NCc2ccccc2)c(C)n(C)c1C -10.4%, CC(C)CCN(C(=O)Nc1ccc(Cl)c(Cl)c1)C(C)c1cccs1 (centres undefined) 1.81%, COc1cccc(OC(=O)CSc2nnc(-c3ccc4c(c3)OCO4)o2)c1 -3.65%, COc1cc(/C=C/c2nc(C#N)c(N3CCC(C)CC3)o2)cc(OC)c1OC -25%, CCOc1ccccc1NC(=O)C(C)N(c1ccccc1)S(C)(=O)=O (centres undefined) -0.0605%, CCc1ccc2c(c1)NC(c1ccc(OC)cc1)=NC(c1ccncc1)=N2 -20.2%, CCOC(=O)c1ccc(OC(=O)c2cn(-c3cccc(OC)c3)c(=O)c3ccccc23)cc1 -14.3%, Cc1ccccc1CSc1nc2cccnc2n1Cc1ccc(C(=O)NCCc2cccs2)cc1 -22.1%, NC(N)=NCCCCN=C(N)N 5.89%, Cc1ccc2oc(=O)n(CCNC(=O)Nc3ccc(C)c(F)c3)c2c1 -8.36%, COc1ccccc1C1C=C(c2ccc(Cl)cc2)Nc2nc(-c3ccc(Cl)cc3)nn21 (centres undefined) -0.778%, Cc1ccc(C)c(N2CCN(C(=O)C(C)n3c(C)c4cnn(-c5ccccc5)c(=O)c4c3C)CC2)c1 (centres undefined) -7.22%, Cc1ccc(N2CCN(C(=O)c3noc4c3COc3ccc(C)cc3-4)CC2)c(C)c1 -3.43%, COc1ccc(NC(=O)CSc2nc(-c3ccccc3)nc3c2Cc2c(CO)cnc(C)c2O3)cc1Cl 5.22%, CC(Nc1ccc(-c2nc(-c3ccccn3)no2)cc1[N+](=O)[O-])c1ccccc1 (centres undefined) -12%, Cc1ccc(C)c(Cn2nc(C)n3c(cc4cc(C)ccc43)c2=O)c1 -27.9%, COC(=O)c1ccc(OCC2c3cc(OC)c(OC)cc3CCN2C(=O)c2ccccc2F)cc1 (centres undefined) 11.5%, Cc1ccc(CNC(=O)c2c(-c3cccc(Br)c3)noc2C)o1 -17.7%, O=C(CSCc1cnn(-c2ccccc2)c1-n1cccc1)Nc1ccc(F)cc1F -12.3%, Cc1cccc(C(=O)Nc2cccc(OCc3cc(=O)n4c(C)csc4n3)c2)c1 16.5%, CCc1ccc(NC(=O)c2cc3c(=O)n(Cc4cccnc4)ccc3nc2C)cc1 -2.85%, CCc1ccc(NC(=O)C(=O)NCC(c2cccnc2)N2CCOCC2)cc1 (centres undefined) -1.45%, COC(=O)c1ccc(Cl)c(NC(=O)C2CCN(S(=O)(=O)Cc3ccccc3)CC2)c1 -0.369%, COc1ccc(Nc2nc(N)nc(CSc3nc4cc(OC)ccc4s3)n2)cc1 -5.79%, COc1ccc(NC(=O)Cc2csc(COc3cccc(C)c3)n2)c(OC)c1 -6.72%, OCCc1ccccc1 -5.64%, CC(C)c1nn2c(=O)cc(COC(=O)CNC(=O)c3ccccc3)nc2s1 4.74%, COc1ccc(-c2noc(CCC(=O)NCc3ccc(OC)cc3OC)n2)cc1 46.8%, COc1ccc(OCC(=O)NCCS(=O)(=O)N2CCN(c3cccc(Cl)c3)CC2)cc1 -12%, CCn1cc(C(=O)N(C)Cc2ccccc2)c(=O)c2cc(S(=O)(=O)N3CCCCCC3)ccc21 -5.13%, O=C(CCn1cnc2onc(-c3ccc(F)cc3)c2c1=O)N1CCN(c2cccc(Cl)c2)CC1 -2.4%, CCC(C(=O)NCCCN(CC)CC)n1ncn2c(cc3occc32)c1=O (centres undefined) -7.86%, CCOc1ccc(CNC(=O)C2Cc3cc(S(=O)(=O)N4CCCCCC4)ccc3N2C(C)=O)cc1 (centres undefined) -5.18%, Cc1ccc(NC(=O)Cn2c(-c3nonc3N)nc3ccccc32)cc1Cl -2.58%, CCOc1ccc(OCC)c(NC(=O)C2CCN(c3cnccn3)CC2)c1 4.22%, O=C(c1ccc(F)cc1F)N1CCC(c2noc(-c3ccc(S(=O)(=O)N4CCCC4)cc3)n2)CC1 1.92%, O=C(Nc1nnc(S(=O)(=O)N2CCOCC2)s1)c1ccc(F)cc1 3.48%, N#Cc1cccc(NC(=O)c2ccc3c(c2)N(Cc2cccc(Cl)c2)C(=O)c2ccccc2S3(=O)=O)c1 -23%, CCc1ccc(NC(=O)CN(Cc2ccccc2)S(=O)(=O)c2ccc3nc(C)sc3c2)cc1 -14.8%, CCc1ccc(S(=O)(=O)c2nnn3c2nc(NCc2ccccc2OC)c2cc(Cl)ccc23)cc1 -9.96%, Cc1ccccc1-c1noc(-c2ccccc2OCC(=O)Nc2ccccc2[N+](=O)[O-])n1 -0.225%, COc1ccc(C2NC(=O)N(C)C3=C2C(=O)N(c2ccc(C)cc2)C3)cc1 (centres undefined) -3.32%, Cn1c(=O)oc2cc(S(=O)(=O)Nc3ccc(O)cc3)ccc21 6.47%, Cc1ccc(-c2nc3cccnc3s2)cc1NC(=O)Cc1ccccc1 -6.55%, Cc1cccc(C)c1OCC(=O)N[C@@H](Cc1ccccc1)[C@@H](O)C[C@H](Cc1ccccc1)NC(=O)[C@H](C(C)C)N1CCCNC1=O 6.34%, COc1ccc(NC(=O)Cn2ccn(-c3ccccc3)c(=O)c2=O)cc1 -2.62%, COc1ccccc1Nc1ncnc2c1nc1n2CCCC1 5.94%, Cc1ccc(-n2nc(C)c3c(C(=O)Nc4ccc(Br)c(C)c4)cc(C)nc32)cc1 -1.94%, COC(=O)C1=C(C)NC(=O)C1(NC(=O)c1ccccc1C)C(F)(F)F (centres undefined) 14.7%, COCCNC(=O)CSc1nc(-c2ccc(C)cc2)nc2c1c(=O)n(C)c(=O)n2C -10.7%, CCOCCCn1c(=N)c(C(=O)NCC2CCCO2)cc2c(=O)n3cc(C)ccc3nc21 (centres undefined) -5.47%, COc1cccc(-c2nc(SCC(=O)N3CCc4ccccc43)c3c(=O)n(C)c(=O)n(C)c3n2)c1 -6.72%, COc1ccc(CCC(=O)NCc2ccc3c(c2)CCN3C(=O)c2ccc(C)cc2)cc1 -23.6%, CCOc1ccccc1CNC(=O)CN1C(=O)CCc2cc(S(=O)(=O)N3CCCCC3)ccc21 0.499%, CCOC(=O)c1c(-c2ccccc2)oc2ccc(NS(=O)(=O)c3ccc(C(C)C)cc3)cc12 -1.41%, COc1ccccc1NC(=O)c1c(NC(=O)c2ccccc2Cl)sc2c1CCC2 -4.64%, Cn1c(=O)c(=O)n(C)c2cc(NC(=O)c3ccccc3Br)ccc21 20.5%, CC(=O)N1CCc2c(sc3c2c(=O)n(Cc2ccccc2)c(=O)n3CC(=O)Nc2ccc(C)c(F)c2)C1 -21.6%, CCOc1ccc(CNC(=O)CCCn2c(=O)c3cccn3c3ccc(F)cc32)cc1 -16.6%, CCc1ccc(NC(=O)CCn2cnc3ccccc3c2=O)cc1 -6.4%

From PubChem BioAssay AID1346428 (National Center for Advancing Translational Sciences (NCATS), 2018)
